# Measurements: the supplement of paper PMC3334620
# In all, about 33,000 sequences were measured (“E-score (-0.5 to 0.5)”: median about -0.04, highest 2% from about 0.36 on). The list shows a part of the results.
# Biological target: T1, Hmlalpha2 (UniProt P0CY09)
# T1 sequence: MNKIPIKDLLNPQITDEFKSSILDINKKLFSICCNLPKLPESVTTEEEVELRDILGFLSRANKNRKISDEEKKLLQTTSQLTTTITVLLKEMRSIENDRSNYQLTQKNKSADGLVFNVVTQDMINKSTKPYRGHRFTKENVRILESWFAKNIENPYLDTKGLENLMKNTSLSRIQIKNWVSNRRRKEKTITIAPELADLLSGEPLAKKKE
# Experiment: PBM E-score (8-mer binding enrichment) (E-score (-0.5 to 0.5)); higher = stronger / more preferred TF binding; most listed sequences are background and not binding sites
# Conditions: protein concentration: 200 nM; construct: GST-full length
# In short: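 Using PURExpress in vitro transcription/translation, GST-tagged yeast transcription factors were made in full-length or DNA-binding-domain form. These were applied at about 100-200 nM to double-stranded universal all-10-mer Agilent arrays, and bound protein was detected with fluorescent anti-GST. Scans were normalised with masliner before the Universal PBM Analysis Suite assigned E-scores to ungapped eight-base words pooled with their reverse complements.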
row,Sequence,PBM E-score
1,ATACGTAT,0.308
2,ATCGGCGA,-0.311
3,AACGATTA,0.0718
4,CTGTAGCC,-0.219
5,ATTATGTC,0.164
6,AAGCTTCC,-0.0602
7,GGGCAGGA,-0.109
8,TGTAGCAA,0.202
9,GCTCACCA,-0.286
10,AATTACCA,0.273
11,CGCTTACA,0.287
12,GCCCATAA,-0.0824
13,GAGACTGA,-0.147
14,GAATCGAC,-0.0392
15,CTAACCTA,-0.0054
16,CTAAGTAG,0.135
17,AGAATACC,0.0773
18,AGTACCGG,-0.0577
19,GACCGGGC,-0.356
20,GAGGTCGC,-0.272
21,CGAGACTC,-0.134
22,TAGTTTAA,0.261

row,Sequence,PBM E-score
1,AGTGGCCA,-0.0438
2,CATGCATG,0.204
3,AACTCATT,-0.154
4,ACCGCCGT,-0.159
5,GCGTAGCA,0.0478
6,TAACCCTA,0.0393
7,CGTTAGGC,-0.0501
8,CAAAAAGA,0.00302
9,CCCGCCAG,-0.0399
10,CTACGACA,-0.0195
11,ACCCAGAG,-0.283
12,CTCGGAGC,-0.196
13,AACCTACT,-0.071
14,CATTTCCG,-0.0392
15,ACCCCACA,-0.188
16,TAGTCTCA,-0.112
17,AAGGGTGC,-0.233
18,ATTACCGC,0.0838
19,GTCACTAA,-0.0217
20,ATCAACCC,0.144
21,GCTTCCCC,-0.252
22,AGGCGCGA,-0.00293

row,Sequence,PBM E-score
1,TCAAGGGA,-0.156
2,AGCTCCAA,0.0488
3,CCTGGCAA,-0.184
4,GGCCTCGA,-0.0711
5,CACCGACC,-0.0911
6,CAAGCAAG,-0.0478
7,AGACCGCA,-0.132
8,ACTGCGAT,-0.157
9,AATGTTAA,0.364
10,GGAGATCC,-0.228
11,TTGCAAAA,0.0115
12,AATGTCTA,0.219
13,CTAAGTTC,-0.06
14,AGGGCTGG,-0.192
15,AACATATA,0.286
16,GACCCGTC,-0.296
17,CGGGGGGA,-0.394
18,CATTTGGA,0.099
19,AGAGTTCA,-0.157
20,ATTACTAA,0.262
21,GGGGGCCA,-0.324
22,ACCCATTC,-0.176

row,Sequence,PBM E-score
1,ATACTATG,0.0473
2,ACATGCTG,0.377
3,ATAATGGA,-0.11
4,GGCAAGTA,0.196
5,AATAAAAC,0.21
6,CATGATTC,-0.0314
7,ACACAACC,0.305
8,GTCAGAAA,0.00281
9,CGTGCAGC,0.0274
10,GTATTCCA,0.227
11,CGAAGTGC,0.107
12,CCTAGGCG,-0.303
13,TTACTAAA,0.261
14,GACGGGGC,-0.364
15,CAACGTTA,0.226
16,AATTCACA,0.317
17,CTACACAC,0.391
18,CCCGTAGC,-0.202
19,AATAAGCG,-0.0762
20,CTTGCGCA,-0.0323
